What all share (assay): co-IP; HEK293 cells co-transfected with c-myc-tagged hMYH (full or deletion mutant) and FLAG-hRad9, 24 h; lysates immunoprecipitated with anti-c-myc antibody, blotted with anti-FLAG and anti-c-myc
Experiment [1] has as its target T1, c-myc-hMYH-ΔNC (amino acids 75-487) (human) (UniProt Q9UIF7).
T1 sequence: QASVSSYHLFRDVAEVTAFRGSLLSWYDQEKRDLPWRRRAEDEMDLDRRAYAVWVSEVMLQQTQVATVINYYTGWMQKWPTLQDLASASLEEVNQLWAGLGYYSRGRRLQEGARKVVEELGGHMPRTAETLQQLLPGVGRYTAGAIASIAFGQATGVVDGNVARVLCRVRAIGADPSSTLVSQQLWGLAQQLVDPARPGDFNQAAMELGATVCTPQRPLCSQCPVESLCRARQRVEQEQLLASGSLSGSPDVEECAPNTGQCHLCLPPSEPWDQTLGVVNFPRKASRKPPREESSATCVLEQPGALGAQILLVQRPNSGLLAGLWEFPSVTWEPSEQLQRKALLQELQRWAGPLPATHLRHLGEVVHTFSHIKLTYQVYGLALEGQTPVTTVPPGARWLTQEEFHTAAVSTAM

In experiment [2] the target is T2, c-myc-hMYH-ΔN (amino acids 75-547) (human) (UniProt Q9UIF7).
T2 sequence: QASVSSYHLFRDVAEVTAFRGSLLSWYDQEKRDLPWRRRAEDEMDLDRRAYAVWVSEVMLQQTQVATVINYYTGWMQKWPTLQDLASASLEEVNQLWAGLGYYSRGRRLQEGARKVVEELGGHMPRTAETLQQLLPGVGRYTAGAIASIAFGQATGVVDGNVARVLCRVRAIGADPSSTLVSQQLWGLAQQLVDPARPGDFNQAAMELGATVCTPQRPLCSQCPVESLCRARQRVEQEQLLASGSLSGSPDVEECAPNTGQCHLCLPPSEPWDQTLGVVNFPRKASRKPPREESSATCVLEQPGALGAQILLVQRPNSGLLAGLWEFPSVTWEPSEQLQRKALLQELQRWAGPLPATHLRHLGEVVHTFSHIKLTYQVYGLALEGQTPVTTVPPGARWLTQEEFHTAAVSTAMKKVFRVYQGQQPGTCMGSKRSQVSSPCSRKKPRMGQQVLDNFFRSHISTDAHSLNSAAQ

The target in experiment [3] is T3, c-myc-hMYH-ΔC (amino acids 1-487) (human) (UniProt Q9UIF7).
T3 sequence: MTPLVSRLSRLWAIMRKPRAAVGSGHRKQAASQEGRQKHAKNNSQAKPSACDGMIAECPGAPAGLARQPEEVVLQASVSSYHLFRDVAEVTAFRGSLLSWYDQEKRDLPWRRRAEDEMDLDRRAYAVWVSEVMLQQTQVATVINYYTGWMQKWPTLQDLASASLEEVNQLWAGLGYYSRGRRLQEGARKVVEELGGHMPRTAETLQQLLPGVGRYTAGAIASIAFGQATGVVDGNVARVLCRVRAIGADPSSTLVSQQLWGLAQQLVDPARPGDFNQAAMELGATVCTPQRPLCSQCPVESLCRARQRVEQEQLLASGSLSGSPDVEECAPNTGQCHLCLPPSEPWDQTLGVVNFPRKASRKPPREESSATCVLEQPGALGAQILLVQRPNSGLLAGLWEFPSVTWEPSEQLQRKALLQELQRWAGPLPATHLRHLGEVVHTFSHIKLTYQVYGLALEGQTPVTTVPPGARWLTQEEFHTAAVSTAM

Experiment [4] concerns the target T4, c-myc-tagged hMYH (full-length, amino acids 1-547) (human) (UniProt Q9UIF7).
T4 sequence: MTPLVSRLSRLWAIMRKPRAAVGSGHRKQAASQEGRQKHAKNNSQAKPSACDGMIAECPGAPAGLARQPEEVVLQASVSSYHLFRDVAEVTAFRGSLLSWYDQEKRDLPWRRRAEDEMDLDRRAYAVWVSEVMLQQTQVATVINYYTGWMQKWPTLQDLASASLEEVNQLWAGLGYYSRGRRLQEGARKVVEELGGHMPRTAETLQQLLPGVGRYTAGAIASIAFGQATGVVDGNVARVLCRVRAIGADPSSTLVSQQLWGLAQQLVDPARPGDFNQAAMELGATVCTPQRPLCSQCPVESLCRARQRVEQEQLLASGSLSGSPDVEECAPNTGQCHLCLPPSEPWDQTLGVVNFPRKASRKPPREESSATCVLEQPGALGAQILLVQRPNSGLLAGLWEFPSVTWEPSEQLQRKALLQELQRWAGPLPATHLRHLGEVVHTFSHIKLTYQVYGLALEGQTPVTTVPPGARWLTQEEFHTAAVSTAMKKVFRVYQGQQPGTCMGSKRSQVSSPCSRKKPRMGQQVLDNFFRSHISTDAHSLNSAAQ

These are yes or no findings as the source states them, for the method shown. In cells and extracts the contact can be indirect. Some results given as binding are weak or reduced against the parent protein; the word gives no strength. Tags and fused reporters may be left off the sequences shown.

B1: FLAG-tagged hRad9 (protein, UniProt Q99638 1-391)
chain: MKCLVTGGNVKVLGKAVHSLSRIGDELYLEPLEDGLSLRTVNSSRSAYACFLFAPLFFQQYQAATPGQDLLRCKILMKSFLSVFRSLAMLEKTVEKCCISLNGRSSRLVVQLHCKFGVRKTHNLSFQDCESLQAVFDPASCPHMLRAPARVLGEAVLPFSPALAEVTLGIGRGRRVILRSYHEEEADSTAKAMVTEMCLGEEDFQQLQAQEGVAITFCLKEFRGLLSFAESANLNLSIHFDAPGRPAIFTIKDSLLDGHFVLATLSDTDSHSQDLGSPERHQPVPQLQAHSTPHPDDFANDDIDSYMIAMETTIGNEGSRVLPSISLSPGPQPPKSPGPHSEEEDEAEPSTVPGTPPPKKFRSLFFGSILAPVRSPQGPSPVLAEDSEGEG
B1: the binding result in experiment [1] is “no binding”; in experiment [2], “no binding”; in experiment [3] it was “binds”; in experiment [4], “binds”.
